Results reported in publication PMC5892938.
The other results are listed elsewhere or left out. At the low end of the ranking, values are background and their order means little.

The sequences below were run against GST-SBP-SLBP (stem-loop binding protein) (UniProt Q14493) (assay: targeted RNA Bind-n-Seq). Settings: RBNS binding buffer: 25 mM Tris pH 7.5, 150 mM KCl, 3 mM MgCl2, 0.1% Tween, 0.5 mg/mL BSA, 1 mM DTT; 27 nM protein, 750 pM RNA pool; temperature not stated; high values mean tight binding.
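Also: DESeq read counts versus GST-SBP nonspecific binding control pulldown.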

Row | Sequence | binding signal (log2 fold change)
1 | GGUCACGUCUCAAUCAACUCAUGUCCAGGAGUUUACUCCUGUUUUUUCAACAGCUCGCAGUCAAG | -0.0573
2 | GGUCACGUCUCAAUCAACUCAUCUUCCAGGGAAAGCCCUGGCAAUCUCAACAGCUCGCAGUCAAG | 0.0424
3 | GGUCACGUCUCAAUCAACUCUUCUUCCAGGGAAACCCCUGGUUUAUUCAACAGCUCGCAGUCAAG | -0.201
4 | GGUCACGUCUCAAUCAACUCAUUUCCAGGAGUUUUCUCCUGCUUUCUCAACAGCUCGCAGUCAAG | -0.00588
5 | GGUCACGUCUCAAUCAACUCUACUCCCAGGGAAACCCCUGGUUUUUUCAACAGCUCGCAGUCAAG | -0.136
6 | GGUCACGUCUCAAUCAACUCAUCUUCAGGAGUUUACUCCUGCUAUGUCAACAGCUCGCAGUCAAG | 0.208
7 | GGUCACGUCUCAAUCAACUCUACUCCAGGAGUUUACUCCUGUAAAUUCAACAGCUCGCAGUCAAG | -0.109
8 | GGUCACGUCUCAAUCAACUCUCUAGAGGGGGGGAAAACCCCUUUACCCUCAAUUUCAACAGCUCGCAGUCAAG | 0.0538
9 | GGUCACGUCUCAAUCAACUCAUUUCCAGGAGUUUGCUCCUGUAUUCUCAACAGCUCGCAGUCAAG | -0.113
10 | GGUCACGUCUCAAUCAACUCAAUGUCAGGAGUUUACUCCUGUUUACUCAACAGCUCGCAGUCAAG | 0.0858
11 | GGUCACGUCUCAAUCAACUCUUCCUCCAGGGAAAGCCCUGGCUUACUCAACAGCUCGCAGUCAAG | 0.0152
12 | GGUCACGUCUCAAUCAACUCUUCUUCCAGGGAAAACCCUGGCUUACUCAACAGCUCGCAGUCAAG | 0.106
13 | GGUCACGUCUCAAUCAACUCUCUAGAGGGGGGGAAAACCCCUUUACCCUCCAUUUCAACAGCUCGCAGUCAAG | 0.192
14 | GGUCACGUCUCAAUCAACUCAUGUCCAGGAGUUUACUCCUGCAAUCUCAACAGCUCGCAGUCAAG | 0.371
15 | GGUCACGUCUCAAUCAACUCAUCCUCAGGAGUUUACUCCUGUUUUUUCAACAGCUCGCAGUCAAG | 0.0464
16 | GGUCACGUCUCAAUCAACUCUUUCUCCAGGGAAAACCCUGGUUAUGUCAACAGCUCGCAGUCAAG | -0.205
17 | GGUCACGUCUCAAUCAACUCUUCUUCCAGGGAAAUCCCUGGCAAUUUCAACAGCUCGCAGUCAAG | -0.0874
18 | GGUCACGUCUCAAUCAACUCCACAGAGGGGGGGAAAACCCCUUUACCCUCAAUAUCAACAGCUCGCAGUCAAG | 0.0653
19 | GGUCACGUCUCAAUCAACUCUCUGGAGGGGGGGAAAACCCCUUUACCCUCAUAUUCAACAGCUCGCAGUCAAG | -0.308
20 | GGUCACGUCUCAAUCAACUCAUCCUCAGGAGUUUCCUCCUGUUUUUUCAACAGCUCGCAGUCAAG | -0.0568
21 | GGUCACGUCUCAAUCAACUCAUUUCCCAGGGAAAACCCUGGCUUACUCAACAGCUCGCAGUCAAG | 0.186
22 | GGUCACGUCUCAAUCAACUCCUAUGAGGGGGGGAAAACCCCUUUACCCUCUACAUCAACAGCUCGCAGUCAAG | -0.0946
23 | GGUCACGUCUCAAUCAACUCUUUUUCAGGAGUUUUCUCCUGUUUUCUCAACAGCUCGCAGUCAAG | 0.0216
24 | GGUCACGUCUCAAUCAACUCUUCUCCAGGAGUUUUCUCCUGUAUUUUCAACAGCUCGCAGUCAAG | -0.121

Row | Sequence | binding signal (log2 fold change)
25 | GGUCACGUCUCAAUCAACUCAAAAGAGGGGGGGAAAACCCCUUUACCCUCAAUGUCAACAGCUCGCAGUCAAG | 0.272
26 | GGUCACGUCUCAAUCAACUCAUCAGAGGGGGGGAAAACCCCUUUACCCUCGUAAUCAACAGCUCGCAGUCAAG | -0.488
27 | GGUCACGUCUCAAUCAACUCUACUUCCAGGGAAAACCCUGGUAUAUUCAACAGCUCGCAGUCAAG | -0.167
28 | GGUCACGUCUCAAUCAACUCAGUCUCCAGGGAAAUCCCUGGCAAAUUCAACAGCUCGCAGUCAAG | -0.207
29 | GGUCACGUCUCAAUCAACUCAACUUCAGGAGUUUUCUCCUGCAAUCUCAACAGCUCGCAGUCAAG | 0.0573
30 | GGUCACGUCUCAAUCAACUCUUCCUCAGGAGUUUUCUCCUGCUAUUUCAACAGCUCGCAGUCAAG | 0.0366
31 | GGUCACGUCUCAAUCAACUCUCAAGAGGGGGGGAAAACCCCUUUGCCCUCAUACUCAACAGCUCGCAGUCAAG | -0.264
32 | GGUCACGUCUCAAUCAACUCAUUUUCAGGAGUUUGCUCCUGCUAUCUCAACAGCUCGCAGUCAAG | 0.21
33 | GGUCACGUCUCAAUCAACUCAACUCCCAGGGAAAACCCUGGCUUUUUCAACAGCUCGCAGUCAAG | -0.0599
34 | GGUCACGUCUCAAUCAACUCAACUCCCAGGGAAAGCCCUGGCAUUCUCAACAGCUCGCAGUCAAG | 0.14
35 | GGUCACGUCUCAAUCAACUCUUCGUCCAGGGAAAUCCCUGGUUUAUUCAACAGCUCGCAGUCAAG | 0.278
36 | GGUCACGUCUCAAUCAACUCUUUCCCCAGGGAAAUCCCUGGCUUUCUCAACAGCUCGCAGUCAAG | 0.094
37 | GGUCACGUCUCAAUCAACUCAAUCCCAGGAGUUUCCUCCUGCAAAUUCAACAGCUCGCAGUCAAG | 0.213
38 | GGUCACGUCUCAAUCAACUCUAUCCCCAGGGAAACCCCUGGUUUACUCAACAGCUCGCAGUCAAG | -0.0937
39 | GGUCACGUCUCAAUCAACUCAAUCUCCAGGGAAACCCCUGGUUAAUUCAACAGCUCGCAGUCAAG | 0.0884
40 | GGUCACGUCUCAAUCAACUCAAUCUCCAGGGAAAACCCUGGCUAAUUCAACAGCUCGCAGUCAAG | -0.0351
41 | GGUCACGUCUCAAUCAACUCUCCAGAGGGGGGGAAAACCCCUUUACCCUCACCAUCAACAGCUCGCAGUCAAG | 0.128
42 | GGUCACGUCUCAAUCAACUCAAUUUCCAGGGAAAACCCUGGUAUACUCAACAGCUCGCAGUCAAG | -0.0362
43 | GGUCACGUCUCAAUCAACUCAUCCUCCAGGGAAAGCCCUGGCUUUUUCAACAGCUCGCAGUCAAG | -0.0957
44 | GGUCACGUCUCAAUCAACUCAAUUCCAGGAGUUUUCUCCUGCUUUCUCAACAGCUCGCAGUCAAG | -0.0441
45 | GGUCACGUCUCAAUCAACUCUACUUCCAGGGAAAUCCCUGGCAAUCUCAACAGCUCGCAGUCAAG | 0.0684
46 | GGUCACGUCUCAAUCAACUCUCUCGAGGGGGGGAAAACCCCUUUACCCUCACAAUCAACAGCUCGCAGUCAAG | 0.571
47 | GGUCACGUCUCAAUCAACUCAAUUCCAGGAGUUUCCUCCUGUUAUCUCAACAGCUCGCAGUCAAG | 0.0703
